Some of the results follow. Single values are uncertain, as repeats are few or missing.
Columns and labels:
Assay in all cases: cell count relative to DMSO control; melanoma cells; higher = more viable cells
Settings in all cases: library dose: low library concentration; 72 h
MZ2-MEL = tested on: MZ2-MEL
MeWo = tested on: MeWo
RPMI7951 = tested on: RPMI7951
RVH-421 = tested on: RVH-421
SkMel28 = tested on: SkMel28
SkMel2 = tested on: SkMel2
SkMel30 = tested on: SkMel30
SkMel5 = tested on: SkMel5
UACC257 = tested on: UACC257
UACC62 = tested on: UACC62
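Also: cell number obtained by counting DAPI-stained nuclei in high-throughput microscope images with image analysis software, screen run in 1,536-well plates.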

| SMILES | cell count (MZ2-MEL) | cell count (MeWo) | cell count (RPMI7951) | cell count (RVH-421) | cell count (SkMel28) | cell count (SkMel2) | cell count (SkMel30) | cell count (SkMel5) | cell count (UACC257) | cell count (UACC62) |
| --- | --- | --- | --- | --- | --- | --- | --- | --- | --- | --- |
| CNC(=O)c1cc(Oc2ccc(NC(=O)Nc3ccc(Cl)c(C(F)(F)F)c3)cc2)ccn1 [sorafenib] + CN(NC(=O)CC(=O)NN(C)C(=S)c1ccccc1)C(=S)c1ccccc1 [STA4783] (first compound 0.4 µM, partner dose 0.006 µM) | 110% | 89.9% | 95.5% | 88% | 88.2% | 100% | 111% | 90.3% | 91.9% | 97.7% |
| CN1CCN(c2ccc3nc(-c4c(N)c5c(F)cccc5[nH]c4=O)[nH]c3c2)CC1 [Dovitinib] + COc1ccc2c(c1)CCC1C2CCC2(C)C(NCCCCCCN3C(=O)C=CC3=O)CCC12 [U73122] (first compound 0.1 µM, partner dose 0.4 µM) | 99.6% | 93.3% | 101% | 91.7% | 110% | 106% | 121% | 91.1% | 87.1% | 103% |
| CN1CCN(c2ccc3nc(-c4c(N)c5c(F)cccc5[nH]c4=O)[nH]c3c2)CC1 [Dovitinib] + C=CCn1c(=O)c2cnc(Nc3ccc(N4CCN(C)CC4)cc3)nc2n1-c1cccc(C(C)(C)O)n1 [MK1775] (first compound 0.1 µM, partner dose 0.02 µM) | 84% | 84.5% | 118% | 89.3% | 94.5% | 95% | 96.8% | 85.8% | 85.9% | 75.4% |
| CN1CCN(c2ccc3nc(-c4c(N)c5c(F)cccc5[nH]c4=O)[nH]c3c2)CC1 [Dovitinib] + Oc1cc(-c2nc(-c3ccccc3)[nH]c2-c2ccncc2)ccc1Cl [L779450] (first compound 0.1 µM, partner dose 0.2 µM) | 74.2% | 98.9% | 108% | 76% | 80.5% | 109% | 86.8% | 87.9% | 85.2% | 67.1% |
| C[C@@H](Oc1cc(-c2cnn(C3CCNCC3)c2)cnc1N)c1c(Cl)ccc(F)c1Cl [Crizotinib] + COc1ccc(-c2ccc3c(N4CCOCC4)nc(N4C[C@@H](C)O[C@@H](C)C4)nc3n2)cc1CO [KU0063794] (first compound 0.2 µM, partner dose 0.02 µM) | 98.7% | 90.3% | 107% | 76.8% | 80.3% | 100% | 93.5% | 82.9% | 79.8% | 86.2% |
| CN1CCN(c2ccc3nc(-c4c(N)c5c(F)cccc5[nH]c4=O)[nH]c3c2)CC1 [Dovitinib] + O=C(O)C(=O)Nc1sc2c(c1C(=O)O)CCNC2 [TCS401] (first compound 0.1 µM, partner dose 1.66667 µM) | 91.7% | 108% | 100% | 116% | 85.2% | 106% | 98.3% | 98.6% | 82.2% | 89.2% |
| CS(=O)(=O)CCNCc1ccc(-c2ccc3ncnc(Nc4ccc(OCc5cccc(F)c5)c(Cl)c4)c3c2)o1 [lapatinib] + Cc1cc([N+](=O)[O-])ccc1NS(=O)(=O)c1cc(Cl)ccc1Cl [FH535] (first compound 0.8 µM, partner dose 1 µM) | 84% | 92.6% | 91.8% | 101% | 91.1% | 93.6% | 97.1% | 89.6% | 92.3% | 74% |
| C=CCNC1=C2C[C@@H](C)C[C@H](OC)[C@H](O)[C@@H](C)/C=C(\C)[C@H](OC(N)=O)[C@@H](OC)/C=C\C=C(/C)C(=O)NC(=CC1=O)C2=O [Tanespimycin] + COc1cc2ncnc(Nc3ccc(Oc4ccccc4)cc3)c2cc1OC [SrcI1] (first compound 0.002 µM, partner dose 2 µM) | 98.1% | 88.3% | 105% | 103% | 99.8% | 92.9% | 103% | 107% | 120% | 112% |
| CS(=O)(=O)CCNCc1ccc(-c2ccc3ncnc(Nc4ccc(OCc5cccc(F)c5)c(Cl)c4)c3c2)o1 [lapatinib] + Cc1cc(N2CCOCC2)cc2[nH]c(-c3c(NC[C@@H](O)c4cccc(Cl)c4)cc[nH]c3=O)nc12 [BMS536924] (first compound 0.8 µM, partner dose 0.2 µM) | 97.7% | 82.8% | 109% | 114% | 83.6% | 90.7% | 94.7% | 85.2% | 83.1% | 89.3% |
| CNC(=O)c1cc(Oc2ccc(NC(=O)Nc3ccc(Cl)c(C(F)(F)F)c3)cc2)ccn1 [sorafenib] + NCC(=O)Nc1ccc(-n2nc(C(F)(F)F)cc2-c2ccc3c(ccc4ccccc43)c2)cc1 [OSU03012] (first compound 0.4 µM, partner dose 1 µM) | 87.6% | 57.2% | 89.9% | 76.5% | 80.7% | 80.5% | 59.1% | 91.8% | 109% | 84.5% |

From the supplement of paper PMC4604168 (melanoma cell lines)
